# Data published in PubChem BioAssay AID1478 (National Center for Advancing Translational Sciences (NCATS), 2009).
# Out of some 200,000 compounds screened, about 860 (0.43%) were called active. The inconclusive results got no clear call from the source; some entries with a clear call stand among them for comparison. Calls come from the whole dose curve; as a rule, active = well fitted inhibition curve with a large enough effect; inconclusive = small, poorly fitted or top-dose-only effect; inactive = flat fitted curve, though single readings scatter. A potency beside an inconclusive call is a rough fit, not a confirmed value. More than one record can exist for a structure, and the calls need not agree.
# Target: Cruzipain (Trypanosoma cruzi) (UniProt P25779)
# Test: qHTS Assay for Promiscuous and Specific Inhibitors of Cruzain (with detergent); note: nearly all actives have a fitted effect of over 40% in size;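 for max response, negative = inhibition: plate controls were neutral wells for no effect and buffer without enzyme for full effect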
# Settings: purified cruzain, Z-FR-AMC fluorescence, 0.01% Triton
# In short: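 Detergent-containing run (0.01% Triton X-100) in acetate buffer pH 5.5 with 5 mM DTT: enzyme at 1.5 nM final, 15 min compound preincubation at room temperature, then 2 uM Z-FR-AMC substrate. Activity taken as 60 s fluorescence increase at 360/450 nm.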
# Potency is the fitted concentration of half-maximal effect; tags give direction and shape of the fitted curve.
# UniProt P25779, sequence (P25779 whole entry, looked up): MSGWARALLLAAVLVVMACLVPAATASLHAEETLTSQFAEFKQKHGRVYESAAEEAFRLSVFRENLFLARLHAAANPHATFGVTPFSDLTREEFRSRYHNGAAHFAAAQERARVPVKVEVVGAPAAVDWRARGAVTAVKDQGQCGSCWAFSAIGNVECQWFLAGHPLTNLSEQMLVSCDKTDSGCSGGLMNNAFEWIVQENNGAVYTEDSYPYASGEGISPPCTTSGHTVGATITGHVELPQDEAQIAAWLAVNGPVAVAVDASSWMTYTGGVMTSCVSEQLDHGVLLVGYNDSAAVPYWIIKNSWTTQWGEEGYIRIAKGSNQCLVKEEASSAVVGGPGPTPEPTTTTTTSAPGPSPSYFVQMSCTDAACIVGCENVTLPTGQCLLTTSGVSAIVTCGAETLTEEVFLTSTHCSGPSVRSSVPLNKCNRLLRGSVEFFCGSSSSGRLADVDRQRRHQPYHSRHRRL
SMILES,"max response, negative = inhibition",Potency
COc1cccc(NC(=O)C2CC(=O)N(c3ccc(Br)cc3)C2)c1 (stereo not given),inactive: -10.1%,
CCCCC(CC)CNC(=O)c1ccc(Cn2c(=O)[nH]c3cc(OC)c(OC)cc3c2=O)cc1 (stereo not given),inactive: -0.0212%,
N#Cc1cnc(SCC(=O)NNC(=O)COc2cccc3ccccc23)nc1N,,"inconclusive: 28.2 µM [inhibitor, single point]"
COc1ccccc1OC(=O)c1ccc(SC)cc1OC,,"inconclusive: 28.2 µM [inhibitor, single point]"
Cc1[nH]n(-c2ncc(-c3ccccc3)s2)c(=O)c1C(c1ccc(Cl)cc1)C(C#N)C#N (stereo not given),,"inconclusive: 25.1 µM [inhibitor, single point]"
Cc1ccc(-n2c(C)cc(/C=N/NC(N)=S)c2C)cc1,,"inconclusive: 31.6 µM [inhibitor, single point]"
CCC(=O)O[C@H]1C(O[C@@H]2C(C)[C@H](O[C@H]3C[C@@](C)(OC)C(O)C(C)O3)C(C)C(=O)OC(CC)[C@@](C)(O)C(O)[C@H](C)C(=O)C(C)C[C@]2(C)O)OC(C)CC1N(C)C (stereo not given in full),,"inconclusive: 14.1 µM [inhibitor, partial curve]"
CCN(NC(=O)C(O)(c1ccc(F)cc1)c1ccc(F)cc1)C(=O)c1ccccc1,inactive: -3.4%,
COC(=O)c1cc(-c2ccc(Br)cc2)on1,inactive: 1.22%,
COC(=O)c1c(NC(=O)CN2CCC3(O)CCCCC3C2c2ccc(OC)cc2OC)sc(C)c1C (stereo not given),,"inconclusive: 15.8 µM [inhibitor, single point]"
Cc1ccc(NC(=O)CSc2nc3c(cc2C#N)C(=O)CCC3)cc1S(=O)(=O)N(C)C,inactive: -0.111%,
Cc1cc(C)c2oc(C(=O)Nc3c(C(=O)c4ccccc4)oc4ccccc34)cc(=O)c2c1,inactive: -0.233%,
Cc1ccc(-c2n[nH]c3c2C(c2ccccc2Cl)N(c2ccc(C(=O)O)cc2)C3=O)cc1 (stereo not given),,"inconclusive: 31.6 µM [inhibitor, single point]"
Cc1cc(NCCCN2CCOCC2)n2c(nc3ccccc32)c1C#N,,"inconclusive: 20 µM [inhibitor, single point]"
O=C(Nc1ccc([N+](=O)[O-])cc1Cl)c1cc(Cl)ccc1O,,active: 5.62 µM
Cc1ccc2nc(-c3ccc(N)cc3)sc2c1S(=O)(=O)O,,active: 35.5 µM
CC1(C)Cc2ccccc2-c2nc(NCCCO)n(-c3ccccc3)c(=O)c21,,"inconclusive: 35.5 µM [inhibitor, single point]"
Cn1c(C(=O)NCCN2CCOCC2)cc2c(=O)n(C)c3ccccc3c21,,"inconclusive: 31.6 µM [inhibitor, single point]"
Cc1ccc2cc3cc(C(=O)NCCCN4CCCCCC4)oc3nc2c1,,"inconclusive: 28.2 µM [inhibitor, single point]"
OCCN1CCN(C(=S)c2ccc(Cl)c(Cl)c2)CC1,inactive: -28.4%,
CCS(=O)(=O)c1ncc(N(Cc2ccco2)Cc2sccc2C)c(C(=O)Nc2ccc(C)cc2C)n1,inactive: -3.04%,
CC(=O)c1cc(-c2ccccc2)n(CC(=O)NC2CCCCCC2)c1C,inactive: 1.17%,
CCCC(=O)NCCc1nc2ccccc2n1Cc1c(F)cccc1Cl,,"inconclusive: 25.1 µM [inhibitor, single point]"
N#CC1=C2SCN(Cc3ccco3)CN2C(=O)CC1c1c(F)cccc1Cl (stereo not given),,"inconclusive: 28.2 µM [inhibitor, single point]"

SMILES,"max response, negative = inhibition",Potency
Nc1cc(OC(=O)c2cccs2)nn1S(=O)(=O)c1ccc(F)cc1,,"inconclusive: 25.1 µM [inhibitor, partial curve]"
COC(=O)c1ccccc1NC(=O)CN1C(=O)COc2ccccc21,inactive: -2.39%,
O[N+]1=CC=CCC1=S.On1ccccc1=S.[Zn],,active: 3.16 µM
O=C(NC1CCCCC1)N1CCCC(c2nc3ccccc3[nH]2)C1 (stereo not given),,"inconclusive: 31.6 µM [inhibitor, single point]"
CN1c2ccccc2-c2nc3ccccc3n2C1c1ccco1 (stereo not given),,"inconclusive: 31.6 µM [inhibitor, single point]"
CCOC(=O)c1cc2c(=O)n3cccc(C)c3nc2n(C)c1=N,,"inconclusive: 35.5 µM [inhibitor, single point]"
CCS(=O)(=O)Nc1cc(C(=O)OC)ccc1C(=O)OC,,"inconclusive: 31.6 µM [inhibitor, single point]"
Nc1nc(Nc2ccccc2)nc2ccccc12,,"inconclusive: 28.2 µM [inhibitor, single point]"
COc1ccc(-c2cc(C(F)(F)F)nc(SCC(=O)NCc3ccc(Cl)cc3)n2)cc1,inactive: -0.933%,
O=C(NCCC1=CCCCC1)c1ccc2c(c1)N(Cc1cccc(Cl)c1)C(=O)c1ccccc1S2(=O)=O,inactive: -0.96%,
CCCCN(C)CCNC(=O)c1ccc2c(c1)NC(=O)CN2,inactive: 0.141%,
O=C(NC1CCCCCC1)c1ccc(CS(=O)c2cccc(Cl)c2)o1 (stereo not given),,"inconclusive: 28.2 µM [inhibitor, single point]"
Cc1ccc(-c2ccc(C(=O)NCc3ccc(Cl)cc3)o2)c2ccccc12,,"inconclusive: 31.6 µM [inhibitor, single point]"
CSc1ccc(C2C(C#N)=C(N)Oc3c2ccc(=O)c2c(C)oc(C)c32)cc1 (stereo not given),,"inconclusive: 25.1 µM [inhibitor, single point]"
O=c1c(N2CCN(c3cccc(Cl)c3)CC2)csc2ccc(Cl)cc12,inactive: -10.9%,
CCc1ccccc1N(CC)C(=O)Cn1nc(Cc2ccncc2)c2ccccc2c1=O,inactive: -3.64%,
CCc1nnc(NS(=O)(=O)c2ccc(NC(=O)/C=C/c3ccc(OC)cc3OC)cc2)s1,,"inconclusive: 31.6 µM [inhibitor, single point]"
Cc1ccc(S(=O)(=O)C(CNS(=O)(=O)c2ccc(F)c(C)c2)c2cccs2)cc1 (stereo not given),inactive: -4.22%,
COCCCNc1oc(-c2ccccc2OC)nc1C#N,,"inconclusive: 22.4 µM [inhibitor, single point]"
COc1cc(/C=C2\S/C(=N/S(=O)(=O)c3ccc(C)cc3)NC2=O)c([N+](=O)[O-])cc1OC,,"inconclusive: 31.6 µM [inhibitor, single point]"
Cc1ccc(N2C(=O)CCSC23C(=O)N(Cc2ccc(F)cc2)c2ccccc23)cc1 (stereo not given),inactive: -1.9%,
Cc1ccc(Cc2nc3ccccc3nc2SCC(=O)NCc2ccccc2Cl)cc1,inactive: 1.5%,
CCCC(=O)Nc1cc(-c2nnc3c4ccccc4c(C)nn23)ccc1C,inactive: -0.252%,
Cc1cccc(-n2c(N)cc(=O)nc2SCC(=O)Nc2nnc(CC(C)C)s2)c1,,"inconclusive: 31.6 µM [inhibitor, single point]"

SMILES,"max response, negative = inhibition",Potency
Cc1ccc(NC(=O)c2c(C)oc3ncn(CC(C)C)c(=O)c23)nc1,inactive: -1.52%,
COCCNc1ncnc2c1cnn2-c1cc(Cl)ccc1C,inactive: -1.45%,
CCOc1ccc(CNC(=O)Cn2nc(C)n3cccc3c2=O)cc1,inactive: -1.46%,
CCc1c(C)c2cc(Cl)c(O)c(CN(C)C)c2oc1=O,,"inconclusive: 35.5 µM [inhibitor, single point]"
Cc1nc(NC2=NCN(CCCN3CCOCC3)CN2)nc2c(C)cccc12,,"inconclusive: 22.4 µM [inhibitor, single point]"
CN(C)c1oc(/C=C/c2ccccc2)nc1C#N,,"inconclusive: 25.1 µM [inhibitor, single point]"
Cc1ccc(OCCNC(=O)/C=C/c2ccc([N+](=O)[O-])cc2)cc1C,inactive: -8.12%,
CC(=O)[C@H]1CC[C@H]2[C@@H]3C=CC4=CC(=O)CC[C@@]4(C)[C@H]3CC[C@]12C,inactive: -5.44%,
O=C(OC1CCCCC1)c1ccc2c(c1)C1C=CCC1C(C(=O)O)N2 (stereo not given),,"inconclusive: 14.1 µM [inhibitor, partial curve]"
NNC(=O)CS(=O)(=O)Nc1ncccn1,inactive: -0.727%,
COCCCn1c(=N)c(C(=O)NC2CCCC2)cc2c(=O)n3ccccc3nc21,,"inconclusive: 39.8 µM [inhibitor, single point]"
Cc1ccc2nc(/C(C#N)=C/c3ccc(-c4cccc(Cl)c4)o3)[nH]c2c1,,"inconclusive: 28.2 µM [inhibitor, single point]"
Cc1ccc(CNC(=O)c2cc3c(=O)n4ccccc4nc3n(CC3CCCO3)c2=N)cc1 (stereo not given),,"inconclusive: 35.5 µM [inhibitor, single point]"
C=CCn1c(Cc2c(C)[nH]c3ccccc23)nnc1SCC(=O)NCc1ccc(F)cc1,inactive: -5.46%,
O=C(NCCCN1CCN(c2ccc(F)cc2)CC1)c1cc2c(s1)-c1ccccc1OC2,,"inconclusive: 25.1 µM [inhibitor, single point]"
COc1ccc(C(=O)c2cn(Cc3ccccc3F)c3ccc(F)cc3c2=O)cc1,inactive: -3.08%,
COc1cc(/C=N/NC(N)=S)ccc1OCc1ccc(C)cc1,,active: 2.24 µM
COc1ccc(OC)c(Nc2nc(-c3sc(N)nc3C)cs2)c1,,"inconclusive: 35.5 µM [inhibitor, single point]"
Cc1cccc(OCC(=O)Nc2ccc(N3CCCC3)cc2)c1C,,"inconclusive: 35.5 µM [inhibitor, single point]"
O=Nc1ccc(Nc2ccccc2)cc1,,active: 7.08 µM
O=c1cc(N2CCOCC2)oc2c(-c3ccccc3)cccc12,,"inconclusive: 28.2 µM [inhibitor, partial curve]"
COc1ccc(-c2nc(S(=O)(=O)c3ccc(C)cc3)c(NCc3ccccc3)o2)cc1,,"inconclusive: 31.6 µM [inhibitor, single point]"
